Results reported in PMC7895950.
These are yes or no findings as the source states them, for the method shown. In cells and extracts the contact can be indirect. Some results given as binding are weak or reduced against the parent protein; the word gives no strength. For some assays here: Sequences can lack the tags named with a protein.

Chains of the proteins cited; added tags and fusions are not shown.
UniProt Q15910: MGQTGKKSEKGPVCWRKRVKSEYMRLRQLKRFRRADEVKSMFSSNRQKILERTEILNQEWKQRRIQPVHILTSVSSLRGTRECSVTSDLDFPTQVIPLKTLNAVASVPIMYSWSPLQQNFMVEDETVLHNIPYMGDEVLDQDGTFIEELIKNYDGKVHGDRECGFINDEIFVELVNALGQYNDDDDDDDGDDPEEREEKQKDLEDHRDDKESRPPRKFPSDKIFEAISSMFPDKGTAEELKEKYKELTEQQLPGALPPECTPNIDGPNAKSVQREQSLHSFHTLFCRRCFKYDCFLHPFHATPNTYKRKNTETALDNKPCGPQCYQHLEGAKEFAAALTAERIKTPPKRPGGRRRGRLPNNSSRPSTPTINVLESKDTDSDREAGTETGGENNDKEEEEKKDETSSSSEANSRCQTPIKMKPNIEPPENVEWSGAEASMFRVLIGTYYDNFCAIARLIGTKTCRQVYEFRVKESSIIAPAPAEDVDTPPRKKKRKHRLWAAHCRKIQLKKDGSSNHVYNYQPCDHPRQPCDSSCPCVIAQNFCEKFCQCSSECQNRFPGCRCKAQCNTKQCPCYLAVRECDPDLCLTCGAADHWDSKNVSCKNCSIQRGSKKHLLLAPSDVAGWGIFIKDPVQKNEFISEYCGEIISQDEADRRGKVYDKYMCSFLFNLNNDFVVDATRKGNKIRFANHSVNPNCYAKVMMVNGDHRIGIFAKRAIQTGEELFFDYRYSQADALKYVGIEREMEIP
UniProt Q13547: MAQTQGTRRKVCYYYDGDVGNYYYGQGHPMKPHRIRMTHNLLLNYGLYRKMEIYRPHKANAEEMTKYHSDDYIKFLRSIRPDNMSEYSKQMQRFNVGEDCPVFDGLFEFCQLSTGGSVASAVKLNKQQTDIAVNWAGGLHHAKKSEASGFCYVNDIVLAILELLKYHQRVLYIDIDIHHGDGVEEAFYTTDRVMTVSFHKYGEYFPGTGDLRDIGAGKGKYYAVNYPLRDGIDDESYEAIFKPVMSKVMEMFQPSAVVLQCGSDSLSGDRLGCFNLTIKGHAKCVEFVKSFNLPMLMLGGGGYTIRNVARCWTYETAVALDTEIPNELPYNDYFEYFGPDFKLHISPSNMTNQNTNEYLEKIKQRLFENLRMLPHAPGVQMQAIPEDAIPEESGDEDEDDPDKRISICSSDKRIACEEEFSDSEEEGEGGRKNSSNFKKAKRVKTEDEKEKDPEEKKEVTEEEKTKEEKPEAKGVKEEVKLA

Tests used:
Ezh2 (in 293T cells) = Ezh2 (in 293T cells) (UniProt Q15910); assay: co-IP; 293T cells transfected with plasmids as indicated for 24 h; RIPA lysates, antibodies and protein A/G magnetic beads, western blot
HA-HDAC1 = HA-HDAC1 (UniProt Q13547); assay: as above
[1] = target: Ezh2 (in 293T cells), Q15910; assay: as above; settings: remark: other sources report otherwise
[2] = target: Ring1b (endogenous, breast cell lines) (human (endogenous in MCF-10A, MCF-7, MDA-MB-231)) (UniProt Q99496); assay: co-IP; lysate of 231 (MDA-MB-231) cells, endogenous proteins; antibodies and protein A/G magnetic beads, western blot
Flag-Snail1, O95863 = assay: co-IP; 293T cells transfected with plasmids as indicated for 24 h; RIPA lysates, antibodies and protein A/G magnetic beads, western blot; settings: remark: other sources report otherwise

B1: Flag-Twist2 (protein, UniProt Q8WVJ9 1-160)
chain: MEEGSSSPVSPVDSLGTSEEELERQPKRFGRKRRYSKKSSEDGSPTPGKRGKKGSPSAQSFEELQSQRILANVRERQRTQSLNEAFAALRKIIPTLPSDKLSKIQTLKLAARYIDFLYQVLQSDEMDNKMTSCSYVAHERLSYAFSVWRMEGAWSMSASH
Ezh2 (in 293T cells)
  binding: binds
HA-HDAC1
  binding: binds

B2: HA-Ring1b, Q99496 1-336 (protein)
chain: MSQAVQTNGTQPLSKTWELSLYELQRTPQEAITDGLEIVVSPRSLHSELMCPICLDMLKNTMTTKECLHRFCADCIITALRSGNKECPTCRKKLVSKRSLRPDPNFDALISKIYPSRDEYEAHQERVLARINKHNNQQALSHSIEEGLKIQAMNRLQRGKKQQIENGSGAEDNGDSSHCSNASTHSNQEAGPSNKRTKTSDDSGLELDNNNAAMAIDPVMDGASEIELVFRPHPTLMEKDDSAQTRYIKTSGNATVDHLSKYLAVRLALEELRSKGESNQMNLDTASEKQYTIYIATASGQFTVLNGSFSLELVSEKYWKVNKPMELYYAPTKEHK
[1]
  binding: binds

B3: CBX4 (endogenous, breast cell lines) (protein, UniProt O00257 1-560)
chain: MELPAVGEHVFAVESIEKKRIRKGRVEYLVKWRGWSPKYNTWEPEENILDPRLLIAFQNRERQEQLMGYRKRGPKPKPLVVQVPTFARRSNVLTGLQDSSTDNRAKLDLGAQGKGQGHQYELNSKKHHQYQPHSKERAGKPPPPGKSGKYYYQLNSKKHHPYQPDPKMYDLQYQGGHKEAPSPTCPDLGAKSHPPDKWAQGAGAKGYLGAVKPLAGAAGAPGKGSEKGPPNGMMPAPKEAVTGNGIGGKMKIVKNKNKNGRIVIVMSKYMENGMQAVKIKSGEVAEGEARSPSHKKRAADERHPPADRTFKKAAGAEEKKVEAPPKRREEEVSGVSDPQPQDAGSRKLSPTKEAFGEQPLQLTTKPDLLAWDPARNTHPPSHHPHPHPHHHHHHHHHHHHAVGLNLSHVRKRCLSETHGEREPCKKRLTARSISTPTCLGGSPAAERPADLPPAAALPQPEVILLDSDLDEPIDLRCVKTRSEAGEPPSSLQVKPETPASAAVAVAAAAAPTTTAEKPPAEAQDEPAESLSEFKPFFGNIIITDVTANCLTVTFKEYVTV
[2]
  binding: binds

B4: Flag-DDX3X, O00571 1-662 (protein)
chain: MSHVAVENALGLDQQFAGLDLNSSDNQSGGSTASKGRYIPPHLRNREATKGFYDKDSSGWSSSKDKDAYSSFGSRSDSRGKSSFFSDRGSGSRGRFDDRGRSDYDGIGSRGDRSGFGKFERGGNSRWCDKSDEDDWSKPLPPSERLEQELFSGGNTGINFEKYDDIPVEATGNNCPPHIESFSDVEMGEIIMGNIELTRYTRPTPVQKHAIPIIKEKRDLMACAQTGSGKTAAFLLPILSQIYSDGPGEALRAMKENGRYGRRKQYPISLVLAPTRELAVQIYEEARKFSYRSRVRPCVVYGGADIGQQIRDLERGCHLLVATPGRLVDMMERGKIGLDFCKYLVLDEADRMLDMGFEPQIRRIVEQDTMPPKGVRHTMMFSATFPKEIQMLARDFLDEYIFLAVGRVGSTSENITQKVVWVEESDKRSFLLDLLNATGKDSLTLVFVETKKGADSLEDFLYHEGYACTSIHGDRSQRDREEALHQFRSGKSPILVATAVAARGLDISNVKHVINFDLPSDIEEYVHRIGRTGRVGNLGLATSFFNERNINITKDLLDLLVEAKQEVPSWLENMAYEHHYKGSSRGRSKSSRFSGGFGARDYRQSSGASSSSFSSSRASSSRSGGGGHGSSRGFGGGGYGGFYNSDGYGGNYNSQGVDWWGN
Flag-Snail1, O95863
  binding: no binding
